From the supplement of paper PMC3334620
Over roughly 33,000 sequences, “E-score (-0.5 to 0.5)” has its median near -0.016; the highest 2% begin near 0.32. Some of the results follow.

molecular target: T1, Stp1 (UniProt B3LFK1); test: PBM E-score (8-mer binding enrichment) (E-score (-0.5 to 0.5)); higher = stronger / more preferred TF binding; most listed sequences are background and not binding sites; conditions: protein concentration: 200 nM; construct: GST-full length
T1 sequence: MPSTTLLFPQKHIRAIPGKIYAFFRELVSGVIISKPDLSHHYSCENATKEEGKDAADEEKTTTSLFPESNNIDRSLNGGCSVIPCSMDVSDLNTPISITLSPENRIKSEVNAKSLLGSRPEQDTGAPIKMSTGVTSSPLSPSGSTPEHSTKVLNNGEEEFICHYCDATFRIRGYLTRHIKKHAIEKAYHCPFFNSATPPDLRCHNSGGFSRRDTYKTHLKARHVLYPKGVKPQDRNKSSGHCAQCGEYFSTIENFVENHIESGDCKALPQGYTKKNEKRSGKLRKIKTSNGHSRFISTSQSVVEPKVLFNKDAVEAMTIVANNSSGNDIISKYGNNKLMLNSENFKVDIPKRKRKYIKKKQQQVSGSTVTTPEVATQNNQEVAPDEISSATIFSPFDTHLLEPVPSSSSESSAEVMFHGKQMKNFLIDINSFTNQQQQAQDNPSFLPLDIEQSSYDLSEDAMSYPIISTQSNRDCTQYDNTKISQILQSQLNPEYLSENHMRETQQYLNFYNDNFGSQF
Method: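 Universal 'all 10-mer' protein binding microarrays (Agilent AMADID 015681) probed with GST-tagged S. cerevisiae TFs (full-length or DBD) made by in vitro transcription/translation (PURExpress), about 100-200 nM. Bound TF was detected with fluorescent anti-GST. Each ungapped 8-mer (which stands for itself and its reverse complement) is scored by the PBM enrichment score (E-score), a modified Wilcoxon-Mann-Whitney statistic from -0.5 to +0.5, computed with the Universal PBM Analysis Suite. Scale: above 0.35 generally sequence-specific binding.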

Sequence	PBM E-score
CCACTTAG	0.0127
CCTGCCCC	-0.275
GACTCAAA	-0.0919
CTCTAAGA	0.0388
ACAACATA	0.0457
AATCAGCA	0.153
GACGACCA	-0.119
CCTTCTGC	-0.215
AATTTGTA	0.159
TAGCTCGA	-0.0947
ATTGTTAG	0.0841
GTATTCTA	0.152
CTGATGGC	-0.076
ACCAACGC	-0.0422
AATTCGCG	0.102
AGGATAAA	0.0297
AGGAAACA	0.0835
CAAATTCG	0.0115
GCAGAACC	-0.0732
TCAAAAGA	0.155
CCGGCCTC	-0.2
CATCTCGA	-0.0909
GCCGGTAA	0.0143
ATAGTTCC	-0.0258
AACTAACT	-0.0452

Sequence	PBM E-score
ACCTGCGA	-0.259
GGCATCAA	0.287
CAAATAGG	0.0882
CTGCTCAC	-0.133
CTGTCAAC	0.0325
GAACTGTA	0.26
ACACGACC	0.0261
GTAGTGCA	0.141
AGACTTGG	-0.281
CCATCACG	0.0153
AACCTGCT	-0.161
CCGCGCTC	0.235
CATTTACG	0.0853
ATCGTTAG	0.076
AATCGAGA	-0.105
ATGCGAAC	-0.103
GGTCTTTA	0.0371
ATAATCTC	0.122
CCTGACTA	0.0312
TGAAGCAA	-0.137
GTTTGTCA	0.0254
ATGCCTAC	-0.053
AGAATTAG	-0.198
AGGGGCAG	-0.228
ACAAGACA	0.201

Sequence	PBM E-score
ACCGATAC	0.0657
GCCGTAGA	0.427
GGTAAGTA	0.102
AAAAGCAA	0.135
ATCCCGAC	-0.0881
ATTGGTAG	-0.00738
ATGCGTTA	0.0413
CGTAGCGC	-0.102
GAATCGCA	-0.16
GCTTCTTA	-0.065
ATACGGAG	0.201
ATTTCGAG	0.115
CGTAGTAG	0.0956
AATAGCAA	0.0203
GACCTCGC	-0.13
CAGTTTAC	0.0432
AGTTTAGC	-0.0815
AATGCACG	0.0521
CGTTTAAA	0.196
GAAGACAC	0.122
CCGATGGA	-0.153
AGCCACAA	-0.0478
AAGTCACG	-0.0977
ATAATCCC	-0.153
ATAACCAA	0.0771

Sequence	PBM E-score
CAAAATCC	0.195
CGAAGTTC	0.0377
AACTTGCC	0.0528
AACCCGTG	0.034
CGGTCGGC	-0.02
AGAGTTAA	0.05
AACGAGGA	-0.0645
GAACCCGC	-0.0711
GGAATTCC	-0.236
AAAAATCT	0.0736
TCTAAGCA	0.104
AATAGTGG	-0.11
GGATGTGA	-0.084
GCAACCGA	-0.0402
TCTACGCA	0.157
AGAGTCGG	-0.108
CACCAATG	-0.165
AGAAAAGA	-0.0559
GAACTCGA	-0.0365
CACGCCTC	0.205
CCGAGGCA	0.179
ATTGCTCG	-0.121
CTTTCAAA	0.137
CCGTCTAC	0.206
ACCTGACT	-0.0202

Sequence	PBM E-score
GCCGAATA	0.265
GCACTTAA	0.235
AAACGGAT	0.259
CTCGACCA	-0.0695
AACTATAG	-0.193
GGTGCACC	0.0513
CAGAATCA	0.0949
CATCATCC	-0.0318
AATGTACA	0.0493
CCTAGTAA	-0.159
CCATGCGC	-0.0475
AATTGGAC	0.0534
AGGACCCA	-0.355
ACGCAGTC	-0.287
GGCTACGA	0.0642
GCAGTCCC	-0.352
GGGGTGAA	-0.282
CATCGGTA	-0.0281
CTTAATCC	-0.109
CTTTCTGC	0.124
GTTCTTAA	0.0537
CCGTGAAG	-0.0571
GTCATAGA	-0.00134
ACGTACAT	0.0249
ATTGGTGG	-0.0784

Sequence	PBM E-score
GGTGTGCA	-0.234
TACTCCTA	0.0822
GTGAACCA	0.0909
CTCACCTA	0.0144
CACGTTTA	0.103
CTCCAAAC	0.12
CTAGTTCC	-0.048
CCGGTCCA	-0.212
AGCTTAGG	-0.0471
CAGGTCCG	-0.205
ACCTAGAC	-0.18
CGGGGGAA	-0.285
AGTAGGAA	-0.00334
AGTAGGTC	-0.17
CCAGGTGC	-0.187
AGGTCCCA	-0.313
AAATAAAG	0.011
ATCACGAA	0.0498
TCACTAAA	-0.0488
CGACTAAA	-0.036
AGCACAGG	-0.129
TCCGCGAA	0.213
AGAACTGC	0.0177
AGATCACG	-0.00795
GACAGTTA	-0.117

Sequence	PBM E-score
CGACGCCA	0.106
AGTGTCCA	0.0853
AATTGTAG	0.038
CCGCGAAG	0.163
AAAAGCGG	0.189
GAGAGTCC	-0.126
CTTTATGA	-0.15
AAGACAGG	0.00525
ACCTCGAT	-0.0777
AGAGGGCT	-0.358
ATGCCATA	0.117
AACGTTCT	0.0162
ACATCAGG	-0.0997
CCGTCACC	-0.0694
CGGATGTC	-0.0665
ACGGAAGT	0.0615
AGAATAGA	-0.0123
ACCAGCAT	-0.271
AGGATACT	-0.198
ACGCATTA	-0.0955
ATTTAGGG	0.0511
TAGATCGA	-0.163
GGGAGAAC	-0.151
GATTGCTA	0.0147
AGCCCTTG	-0.131

Sequence	PBM E-score
AACCCTGT	-0.0655
GTGTGAAC	-0.0424
TGGGCACA	0.135
ATGGGCAA	-0.126
AAGGTAAC	0.221
ACTTGCAA	0.181
TCAGTTCA	-0.078
ATTGTTTG	0.202
GCTGAATA	-0.0632
AATGGTCA	-0.0635
TCGACAGA	-0.0398
CGCGACCC	-0.1
CAATTCTG	0.0916
TGCTAAAA	0.0719
GATCGGCA	0.135
AAAAAAGC	0.114
CCGATGGC	-0.0258
CACTATCC	-0.135
ACTACTCG	0.0185
GATAGCGC	0.0676
AGATGGCC	-0.132
CCGAAGGC	-0.112
GCATTAAA	0.244
AACGCAAA	0.174
ATAACGCG	0.0829

Sequence	PBM E-score
CGGCGTAC	0.36
ATCTTAGC	-0.0777
AGAAGTGA	-0.0301
ACAAAAAT	0.178
AACACCAT	0.12
CCACTGCC	0.0034
CTCAAGAA	-0.0307
CATGGAAC	-0.116
CTTCTAGC	-0.0527
GGATGAAA	0.0759
AGCAGTTA	-0.083
CTTCTCTA	-0.0825
AATACCTC	0.0466
ACTAAGGG	-0.147
AGAGTACC	-0.107
AAGCCGCC	0.177
GGTCATTA	-0.256
AACATATT	0.0606
ACCCGCAG	0.0741
